The data set can be described thus: Pharmacokinetics of THC and CBD after oral MC formulation (Example 3). Conditions: high fat meal (about 60 g fat) 30 minutes before 2.5 mg dose versus 12 hour fast.

For `C=C(C)[C@@H]1CCC(C)=C[C@H]1c1c(O)cc(CCCCC)cc1O` [CBD, cannabidiol], the “effect of high fat meal on t½” value was “unchanged”.
For `CCCCCc1cc(O)c2c(c1)OC(C)(C)[C@@H]1CCC(C)=C[C@@H]21` [THC, Δ^9-tetrahydrocannabinol], the “effect of high fat meal on t½” value is recorded as “unchanged”.

The values are drawn from patent US20230218566A1, “Composition and Method for Treating Chronic Pain” (Zelira Therapeutics Operations Pty Ltd, priority 2020, published 2023).
